# The other results are listed elsewhere or left out.
# System: PF3D7_0420300 AP2 domain 1 (GST-tagged)
# Experiment: gcPBM binding intensity (ln(normalized median fluorescence intensity)); higher = stronger DNA binding
# In short: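 Each value is the highest Masliner-normalised natural-log median intensity across replicate spots of either orientation of a probe. The probes were primer-extended double-stranded 36-bp intergenic genomic sequences on an Agilent 4 × 180k array, alongside negative controls, exposed for 1 h to GST-tagged P. falciparum DNA-binding domains expressed in E. coli. Bound protein was picked up with Alexa488 anti-GST antibody and scanned at 488 nm.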
row,Sequence,gcPBM binding intensity (ln)
1,AAAAAAAATTATTATGAACACACATTTATTATATTC [CACACA_site8443],9.28
2,TAATATGATCTTAATAGTACTTTATTAATAATAACC [XGTACX_site1953],9.07
3,TATATATGTTTATGTAGTACTATATATCCCTTTCTT [XGTACX_site7049],9.36
4,CACGCACAGATATATACACACTTTTATTTAAATAAC [CACACA_site6852],9.53
5,GGATGCACACAAAAGGGTACATAAGAAAAAAACAGG [XGTACX_site8570],9.59
6,AAAAATAAAATGGACACACACGTTCAAATTTAGATT [CACACA_site5186],9.74
7,TGGGTAAACAAACACACACACATATATATATATATA [CACACA_site1992],9.78
8,TTCACTAATAAATACGCACACATATACAGATATATA [CACACA_site4887],9.39
9,AAATATATATATAGTTGTACATATATCGTATATATT [XGTACX_site7867],9.31
10,AGTTGTTACGAACATACACACGAACATAGACACGGA [CACACA_site8102],9.76
11,AAAAAAAAATATATAAACACACATATTTATATACAC [GTGCAC_negctrl_site545],9.61
12,TTATTTAAATAATATGTACACACATTTAAAAAATTA [CACACA_site8912],9.1
13,ATGAGTGTAATAATATGTACATAACCTACATAATTT [XGTACX_site852],9.31
14,ATAAAAATATTACGCACACACAAACTTATTCATTAT [CACACA_site1969],9.87
15,TTGTTCAAACAAAAAATAAAATAATTGAAAATAAAA [CACACA_negctrl_site812],9.01
16,GTAACTTTATTATACTGTACTATTATATAAGCACAC [XGTACX_site2859],9.34
17,TGTAAAAAATTTAACACACACATATATATATATATA [CACACA_site2585],9.46
18,ATTACAATATATACGTGTACATATTACCACCGCTAC [XGTACX_site2308],9.41
19,AAAAAAAAAAGACACACACACAAAAAAAGATATATA [CACACA_site6645],10.2
20,TAGAATAAGATAGATATACACACCATTATAAATATA [CACACA_site2500],9.6
21,TTACAAAATAAGAGGCACAAACACAAAAAAAAATAA [CACACA_negctrl_site574],9.62
22,AAAAAAAAAAGACATGCATACGCTAATTTTTAGTTG [TGCATGCA_site300],9.03

row,Sequence,gcPBM binding intensity (ln)
1,TATTATAATAAGAAGTGTACGTGTTTTTATAAATAA [XGTACX_site575],9.04
2,TATAAAAAAAACGAAAAAAAAAAAAAAAATACAGGA [TGCATGCA_negctrl_site585],9.72
3,TTATTTATAAACATATGTACTAATACATGATTAACA [XGTACX_site7645],9.02
4,GACATATATATAAAATGTACATATATATTTACATAT [XGTACX_site7822],9.29
5,TGATAATAAGCATACACACACACACTAGAAAAAAAA [CACACA_site4558],10.1
6,TGTTCTTTATTTTATTGTACTTTTAAAATTCCTTTA [XGTACX_site8058],9.35
7,AATATTAAACAAAATAAATATATAAAAAATAAATAA [GTGCAC_negctrl_site93],9.33
8,AAGTTATATTTGTGTACACATAATTTTATACTAATA [CACACA_site5553],9.39
9,TATTTAATACGGACTCATAAATCTTAATAAAAAAAA [CACACA_negctrl_site434],8.9
10,ATTATGTTTCTTTTTTTTTTTAAAGGATGTCTTTTT [CACACA_negctrl_site974],9.38
11,TTTAAGCAAAAACACACACACATATATATATATATA [CACACA_site349],9.77
12,AAAAAATGATAATATACACACTTATGGGAGAGCGCA [CACACA_site5398],9.64
13,TATAAATATATATACACACACATATATATTATATAT [CACACA_site596],9.73
14,AAAAAAGAAAAAAACTGTACATGATAAATATTTATT [XGTACX_site7270],9.44
15,ACATTTTTTTTGTGAGTCTTTGCGGCATCAAAATTT [XGTACX_negctrl_site348],8.94
16,TTATGAAGCAGACATGCATGTTATGGCTTAAATAAT [TGCATGCA_site492],9.12
17,TCCCTTTGTATATATATATAAATATATATATATATA [CACACA_negctrl_site157],9.22
18,TTTATCGAATATAATAGTACATAAAAAAAAAAAAAA [XGTACX_site1734],8.98
19,AGATTATATAAAAAAGTGCATATTTTCATTTTTTTT [GTGCAC_site9448],9
20,CATTAAAATGGTAAATGTACATATCCATCTTCTCAC [XGTACX_site4636],9.11
21,AATGATATATTATAAACACACAAAGATGAATATATA [CACACA_site2818],9.64
22,AATTAAAAAAAATACACACACACATACCCATATATA [CACACA_site5767],10.2
